Laboratory results taken from PubChem BioAssay AID1345082 (National Center for Advancing Translational Sciences (NCATS), 2018).
About 4,000 (4.3%) of roughly 94,000 compounds were called active. The shares of active, inactive and inconclusive entries below differ from those in the screen. The call rests on the fitted dose curve; in most records, active means well fitted inhibition curve with a large enough effect; inconclusive means small, poorly fitted or top-dose-only effect; inactive means no such curve, though single readings can be large or run the other way. Potencies of inconclusive entries are doubtful fits and often do not repeat.

test: Cytotoxic Profiling in NIH 3T3 Cell Line of Diverse Libraries Using Quantitative High-Throughput Screening; conditions: NIH 3T3 viability, CellTiter-Glo ATP luminescence, 48-72 h; activity change, negative = cytotoxicity: at 96.7 µM (top of the series) unless noted; series mostly up to 96.7 µM; further: nearly all actives have a fitted effect of over 55% in size
Outline: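 Cytotoxicity is measured as loss of cellular ATP: NIH 3T3 cells (400/well) are exposed to compound for 48 or 72 hr at 37 °C, then CellTiter-Glo luminescence is imaged after 10 min at room temperature.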
On the % scale 0 is the no-effect control and ±100 the full control effect; potency means the concentration at half of the fitted maximal effect; tags describe the fitted curve by direction and shape.

Compound	Potency	activity change, negative = cytotoxicity	outcome
OCc1cccc(-c2ccc3ncc(Nc4cccnc4)n3n2)c1	inconclusive: 63.1 µM [inhibitor, partial curve, poor fit]		
Cn1nc(C2CCCN2)c2c(C(=O)N3CCC(F)CC3)cc(C3CC3)nc21 (configuration not stated)		inactive: 2.09%	
CCNC(=O)N1Cc2[nH]cnc2C[C@H]1c1nc(-c2ccc(OC(F)(F)F)cc2)no1	inconclusive: 100 µM [inhibitor, partial curve, poor fit]		
O=C(CN1C(=O)NC(c2ccc(Cl)cc2)C2=C1COC2=O)Nc1ccccc1 (configuration not stated)	inconclusive: 39.8 µM [inhibitor, partial curve, poor fit]		
O=C1c2cc(N3CCOCC3)nc(-c3ccc(F)cc3)c2CN1CC1CC1	inconclusive: 3.16 µM [inhibitor, full curve, poor fit]		
COc1cccc(CCC(=O)N2CCC(c3nc(C4CCOCC4)no3)C2)c1 (configuration not stated)		inactive: -26%	
C[C@H]1CN(S(=O)(=O)c2cccc(F)c2)C[C@@H]1c1nc(-c2ccccc2)no1	inconclusive: 70.8 µM [inhibitor, single point]		
Fc1ccc(CN2CC[C@H](c3nc4ccc(C(F)(F)F)cc4[nH]3)C2)cc1F	active: 12.6 µM		
CNC(=O)CCn1ncc2cc(OC3CCc4cccc(-c5ccncc5)c43)ccc21 (configuration not stated)	inconclusive: 50.1 µM [inhibitor, partial curve, poor fit]		
Cc1cc(=O)oc2cc(OCC(=O)NC3CCCc4c3[nH]c3ccccc43)ccc12 (configuration not stated)	inconclusive: 50.1 µM [inhibitor, partial curve, poor fit]		
O=c1cc(C2CC(NC3CCC4(CCNCC4)CC3)C2)nc(C2CC2)[nH]1 (configuration not stated)		inactive: 3.01%	
O=C(NCCc1ccccc1F)C1CCN(c2ccnc3ccnn23)CC1	inconclusive: 39.8 µM [inhibitor, partial curve, poor fit]		
CC(C)c1ccc(CN2CC(CNC(=O)C3CCOCC3)C3(C2)CN(c2ccccc2)C3)cc1 (configuration not stated)	inconclusive: 70.8 µM [inhibitor, single point]		
O=C1N(C2CCCCC2)C[C@H]2CN(Cc3ccc(C(F)(F)F)cc3)CCN12	inconclusive: 44.7 µM [inhibitor, partial curve, poor fit]		
COc1ccc(NC(=O)N2CCOC(c3ccc(Cl)cc3)C2)c(C)c1 (configuration not stated)		inactive: -27.6%	
CN1CCN(Cc2ccc(-c3ccc(C(C)(C)C#N)cc3)nc2)CC1	inconclusive: 50.1 µM [inhibitor, partial curve, poor fit]		
COc1ccc(-c2nc3cc(C)ccc3cc2CN2CCC[C@H]2C(N)=O)cc1OC	inconclusive: 44.7 µM [inhibitor, partial curve, poor fit]		
O=C(NC[C@H]1O[C@H](Cc2cc(-c3ccc(F)cc3)on2)CC[C@@H]1O)NC1CCCCC1	active: 89.1 µM		
COc1ccc(CNc2cc3c(cn2)CN(C)CCN3C)cc1OC	inconclusive: 79.4 µM [inhibitor, partial curve, poor fit]		
C=CCNC(=O)c1cnn2cc(C)ccc12		inactive: -25.1% [at 174 µM]	
Cc1nn2c(c1-c1ccnn1C(C)C)N(CC1CCOCC1)CCC2	active: 31.6 µM		

Compound	Potency	activity change, negative = cytotoxicity	outcome
Cn1cnc(C(=O)NCC(=O)N2CCCCCNC(=O)CC2c2ccccc2)c1 (configuration not stated)			inactive
O=C(NCc1cccnc1)C1CCN(c2ccnc3ccnn23)CC1	inconclusive: 89.1 µM [inhibitor, partial curve]		
Cn1cc(CN2CCC(C3CCN(S(C)(=O)=O)CC3)C2)c2ccccc21 (configuration not stated)	inconclusive: 50.1 µM [inhibitor, partial curve, poor fit]		
CC1CCN(CC2CCCN(S(=O)(=O)c3ccc(F)cc3)CC2)CC1 (configuration not stated)		inactive: -27.9%	
COc1ccccc1-c1ccc(CN2CCC(NC(=O)N(C)C)C2)cc1 (configuration not stated)		inactive: -20.2%	
COCc1ccc2c(c1)c(OC(C)(C)C(=O)Nc1ccccn1)nn2CCC(C)C	active: 44.7 µM		
COc1ccc(CCNc2ncnc3c2CN(c2ccccc2)C(=O)CN3C)cc1	inconclusive: 50.1 µM [inhibitor, partial curve, poor fit]		
COc1ccc(CCNC(=O)c2nc3sccn3c2-c2ccncc2)cc1	inconclusive: 35.5 µM [inhibitor, partial curve]		
CCc1[nH]nc(C(=O)N2CCC(c3[nH]ncc3-c3cccc(C)c3)CC2)c1C	inconclusive: 100 µM [inhibitor, partial curve, poor fit]		
Cc1cccc(C)c1-c1nnc2ccc(C(=O)NCC(C)C)cn12		inactive: -23.8% [at 138 µM]	
CCC(c1cccs1)N1C(=O)[C@H]2CN(S(=O)(=O)c3cc(C)ccc3C)C[C@H]2C1=O (some centres not stated)	inconclusive: 44.7 µM [inhibitor, partial curve, poor fit]		
NC(=O)c1cc[nH]c1C1CCCN(S(=O)(=O)c2ccc3c(c2)CCC3)C1 (configuration not stated)	inconclusive: 35.5 µM [inhibitor, partial curve]		
CSCCC(=O)NC1CC(=O)N(Cc2cccc(F)c2)C1 (configuration not stated)		inactive: -11%	
Cc1cc(Cn2cc3c4c(cccc42)[C@H](CC(C)C)N[C@H](C(=O)NCc2nccs2)C3)no1	inconclusive: 39.8 µM [inhibitor, full curve]		
CCc1cc(C(=O)N2CCC3(CCC(=O)N(CCc4cnc[nH]4)C3)CC2)cs1		inactive: -4.41%	
Cc1c(CNC(=O)c2ccc(C3CCNC3)cc2)oc2ccccc12 (configuration not stated)	inconclusive: 50.1 µM [inhibitor, partial curve, poor fit]		
CCn1ccnc1CN1CCCC1C(=O)Nc1ccc(-c2cccc(F)c2)cc1 (configuration not stated)	inconclusive: 56.2 µM [inhibitor, partial curve, poor fit]		
O=C1CC2(CCN(C(=O)C3CCN(C(=O)c4ccccc4Cl)CC3)CC2)Oc2ccccc2N1		inactive: -8.99%	
Clc1cccc(CN2CC[C@H](c3nc4ccccc4[nH]3)C2)c1	inconclusive: 56.2 µM [inhibitor, full curve, poor fit]		
CN(C)c1ncnc2sc3c(c12)CCN(Cc1ccc2cc[nH]c2c1)C3	inconclusive: 70.8 µM [inhibitor, single point]		
CC1=C(C(=O)OC(C)C)C(c2ccc(Cl)cc2)N2C(CC(=O)N3CCCC3)=CSC2=N1 (configuration not stated)	inconclusive: 50.1 µM [inhibitor, single point]		
